Here are results for 29 molecules from the antibiotic and cytotoxicity screens of Wong et al. (2023).

The structures appear in SMILES notation. Some of the results follow.

The test system of the first assay is HSkMC (human skeletal muscle cells). Description: cytotoxicity call (relative viability < 0.9). The note with it: 10 µM.
`C[C@@H]1CN([C@@H](C)CO)C(=O)Cc2cc(NC(=O)Nc3ccccc3)ccc2O[C@H]1CN(C)S(=O)(=O)c1cn(C)cn1`: the cytotoxicity call was “inactive”.
The same measure, in the same setting: under `C[C@@H]1CN([C@H](C)CO)C(=O)c2cccc(NC(=O)c3nc4ccccc4s3)c2O[C@@H]1CN(C)Cc1ccc(Cl)c(Cl)c1` stands “inactive”.
`C[C@H]1CN([C@@H](C)CO)C(=O)Cc2cc(NC(=O)CCN3CCOCC3)ccc2O[C@@H]1CN(C)C(=O)NC1CCCCC1`: the cytotoxicity call was “inactive”.
For `CC1(C)S[C@@H]2[C@H](NC(=O)[C@H](N)c3ccccc3)C(=O)N2[C@H]1C(=O)OCOC(=O)[C@@H]1N2C(=O)C[C@H]2S(=O)(=O)C1(C)C`, the cytotoxicity call is “inactive”.
For `Cc1noc(C)c1NC(=O)Nc1cccc2c1O[C@H](CN(C)Cc1ccc(-c3ccccc3)cc1)[C@@H](C)CN([C@H](C)CO)C2=O`, the cytotoxicity call is “inactive”.
Turning to `C[C@@H]1CN([C@@H](C)CO)C(=O)c2c(c3ccccc3n2C)-c2ccccc2CO[C@H]1CN(C)S(=O)(=O)c1ccc(C(F)(F)F)cc1`, the cytotoxicity call is “inactive”.
Still for that read-out and setting: with `C[C@@H]1CN([C@@H](C)CO)S(=O)(=O)c2ccc(-c3ccccc3F)cc2O[C@@H]1CN(C)S(C)(=O)=O` the entry was “inactive”; with `C[C@H]1CN([C@@H](C)CO)C(=O)c2ccccc2-c2ccccc2CO[C@@H]1CN(C)C(=O)Nc1ccc(-c2ccccc2)cc1`, “inactive”.
As to `C[C@@H]1CCCCO[C@H](CN(C)Cc2ccc3c(c2)OCO3)[C@@H](C)CN([C@H](C)CO)C(=O)c2cc(NC(=O)Nc3ccc(C(F)(F)F)cc3)ccc2O1`, the cytotoxicity call was “active”.
For the molecule `Cc1cc(C(=O)Nc2cccc3c2O[C@@H](CN(C)C(=O)Nc2c(C)noc2C)[C@H](C)CN([C@H](C)CO)C3=O)n(C)n1`, the cytotoxicity call was “inactive”.

The subject of another assay is HepG2. Description: cytotoxicity call (relative viability < 0.9). The note with it: 10 µM.
Take `CC1(C)OC2COC3(COS(N)(=O)=O)OC(C)(C)OC3C2O1` (centres undefined): the cytotoxicity call is “inactive”.
Consider `C=C1CCC(O)CC1=CC=C1CCCC2(C)C1CCC2C(C)C=CC(C)C(C)C` (centres undefined), for which the cytotoxicity call was “inactive”.
On to `C[C@@H]1CN([C@H](C)CO)C(=O)Cc2cc(NS(=O)(=O)c3ccc(F)cc3)ccc2O[C@@H]1CN(C)Cc1ccc(Oc2ccccc2)cc1`, for which the cytotoxicity call is “active”.
In the case of `C[C@H]1CCCCO[C@H](CN(C)C(=O)Nc2ccc(C(F)(F)F)cc2)[C@@H](C)CN([C@@H](C)CO)C(=O)c2cc(NC(=O)Cc3ccccc3)ccc2O1`, the cytotoxicity call was “inactive”.
As for `C[C@H](CO)N1C[C@H](C)[C@@H](CN(C)C(=O)Nc2cccc3ccccc23)OCCCC[C@H](C)Oc2ccc(NC(=O)Nc3ccc4c(c3)OCO4)cc2C1=O`, the cytotoxicity call is “inactive”.
Take `C[C@@H]1CN([C@@H](C)CO)C(=O)c2cc(NC(=O)CCN3CCOCC3)ccc2O[C@H]1CN(C)S(=O)(=O)c1ccc(Cl)cc1`: the cytotoxicity call was “inactive”.
On to `COCCNC(=O)C[C@H]1CC[C@H]2[C@H](COc3ccc(NC(=O)Nc4cccc(F)c4)cc3C(=O)N2C)O1`, for which the cytotoxicity call is “inactive”.
For `O=C(CN1CCOCC1)NCC[C@@H]1CC[C@H](NS(=O)(=O)c2ccc(Cl)cc2)[C@@H](CO)O1`, the cytotoxicity call is “inactive”.
With `C[C@@H]1CN([C@H](C)CO)C(=O)c2cc(NS(C)(=O)=O)ccc2O[C@H]1CN(C)C(=O)NC1CCCCC1`, the cytotoxicity call was “inactive”.
Still for that read-out and setting: with `Cc1ccc(S(=O)(=O)N[C@@H]2CC[C@@H](CCNC(=O)CN3CCOCC3)O[C@H]2CO)cc1` the entry was “inactive”; with `CC(C)(C)c1ccc(NC(=O)c2ccc(C(C)(C)C)s2)cc1`, “inactive”.
On to `CC(C)NC(=O)Nc1ccc2c(c1)C(=O)N([C@H](C)CO)C[C@H](C)[C@@H](CN(C)C(=O)Nc1ccc(F)cc1)OCCCC[C@@H](C)O2`, for which the cytotoxicity call was “inactive”.
On the same count and under the same terms, with `Cc1noc(C)c1S(=O)(=O)Nc1ccc2c(c1)C(=O)N([C@@H](C)CO)C[C@@H](C)[C@@H](CN(C)Cc1ccccc1)O2` the entry was “inactive”; with `COC(=O)c1c(CC[C@@H](CO)NC(=O)N[C@@H](Cc2ccccc2)Cn2cc(C3(O)CCCC3)nn2)oc(C(=O)N2CCOCC2)c1C(=O)OC`, “inactive”; with `C[C@@H]1CN([C@H](C)CO)C(=O)c2cc(NC(=O)Nc3ccc4c(c3)OCO4)ccc2O[C@@H](C)CCCCO[C@H]1CN(C)S(=O)(=O)c1ccc(Cl)cc1`, “active”.
The same measure, in the same setting: with `C[C@@H]1CN([C@H](C)CO)S(=O)(=O)c2ccc(C#CCN(C)C)cc2O[C@@H]1CN(C)C` the entry was “inactive”.
The same measure, in the same setting: under `CN1C(=O)c2cc(NC(=O)C3CCOCC3)ccc2OC[C@H]2O[C@H](CC(=O)NCCc3ccncc3)CC[C@H]21` stands “inactive”.
For the molecule `Cc1ccc(-c2cccc(C(=O)N[C@H]3CC[C@@H](N)CC3)c2)o1`, the cytotoxicity call is “inactive”.
As for `Cc1ccc(S(=O)(=O)N(C)C[C@@H]2OCCCC[C@@H](C)Oc3ccc(NC(=O)Nc4ccc(C(F)(F)F)cc4)cc3C(=O)N([C@H](C)CO)C[C@H]2C)cc1`, the cytotoxicity call was “inactive”.
